2 molecules from PubChem BioAssay AID200 (DTP/NCI, 2004) can be followed below.

Inconclusive results and toxic doses are left out. The source holds more than one record for some entries. Only these are listed. An entry can have further records. Values given together are repeats in other runs, samples, wells, individuals or studies.

The subject of this assay is B6C3F1 mice, B16 melanoma ip, median survival T/C. The experiment in a line: NCI In Vivo Anticancer Drug Screen. Data for tumor model B16 Melanoma (intraperitoneal) in B6C3F1 mice. The following applies: endpoint: median survival time, schedule: Q01DX009 (ip), higher = longer survival. The protocol:
The antitumor activity of compounds was measured in mice bearing transplantable tumors. Survival or tumor size were measured and the results are expressed as the measurement made in the treated group (T) divided by the measurement made in the vehicle treated control group (C). The tumor model used in this assay is B16 Melanoma (intraperitoneal) in B6C3F1 mice

As to `COC(=O)C12OCC34C(CC5C(C)=CC(=O)C(O)C5(C)C3C(O)C1O)OC(=O)C(OC(=O)CC(C)C)C24` (configuration not stated), the T/C (dose: 0.12 mg/kg/injection, vehicle: saline + alcohol) is 119 % of control and 153 % of control.

Consider `COc1ccc(-c2c3c(cc4cc5c(cc24)OCO5)C(=O)OC3)cc1OC`, for which the T/C (dose: 48.0 mg/kg/injection, vehicle: Klucel (hydroxypropylcellulose) (HPC)) was 99 % of control and 170 % of control.
